The results in this text go back to publication PMC9911399, “Two distinct binding modes provide the RNA-binding protein RbFox with extraordinary sequence specificity”.

Residue numbers refer to the chain shown, from its start. Some of the results follow.

T1: RBFOX1 RRM (Homo sapiens, UniProt Q9NWB1 109-208)
T1 sequence: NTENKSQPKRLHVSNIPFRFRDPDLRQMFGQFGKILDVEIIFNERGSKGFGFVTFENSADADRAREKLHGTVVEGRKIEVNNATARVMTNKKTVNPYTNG

B1: UGUGAUA (DNA:RNA)
RNA: GGGAGACCGGAAUUCAGAUUGUCCUGUGAUAUUAAAUCCCGUCGUAGCCACCA
DNA 1: CAATCTGAATTCCGGTCTCCC
DNA 2: TGGTGGCTACGACGGGATT
B2: UAAGACU (DNA:RNA)
RNA: B1 RNA with G26A, U27A, U30C, A31U
DNA 1: CAATCTGAATTCCGGTCTCCC
DNA 2: TGGTGGCTACGACGGGATT
B3: ACUGAUG (DNA:RNA)
RNA: B1 RNA with U25A, G26C, A31G
DNA 1: CAATCTGAATTCCGGTCTCCC
DNA 2: TGGTGGCTACGACGGGATT
B4: GACCCAU (DNA:RNA)
RNA: GGGAGACCGGAAUUCAGAUUGUCCGACCCAUUUAAAUCCCGUCGUAGCCACCA
DNA 1: CAATCTGAATTCCGGTCTCCC
DNA 2: TGGTGGCTACGACGGGATT
B5: CCUCGGG (DNA:RNA)
RNA: B4 RNA with G25C, A26C, C27U, C29G, A30G, U31G
DNA 1: CAATCTGAATTCCGGTCTCCC
DNA 2: TGGTGGCTACGACGGGATT
B6: CCUCUCG (DNA:RNA)
RNA: B4 RNA with G25C, A26C, C27U, C29U, A30C, U31G
DNA 1: CAATCTGAATTCCGGTCTCCC
DNA 2: TGGTGGCTACGACGGGATT
B7: UCUGCCU (DNA:RNA)
RNA: B1 RNA with G26C, A29C, U30C, A31U
DNA 1: CAATCTGAATTCCGGTCTCCC
DNA 2: TGGTGGCTACGACGGGATT
B8: UGUAUAU (DNA:RNA)
RNA: B1 RNA with G28A, A29U, U30A, A31U
DNA 1: CAATCTGAATTCCGGTCTCCC
DNA 2: TGGTGGCTACGACGGGATT
B9: AUCCCAU (DNA:RNA)
RNA: B4 RNA with G25A, A26U
DNA 1: CAATCTGAATTCCGGTCTCCC
DNA 2: TGGTGGCTACGACGGGATT
B10: GUCCCUA (DNA:RNA)
RNA: B4 RNA with A26U, A30U, U31A
DNA 1: CAATCTGAATTCCGGTCTCCC
DNA 2: TGGTGGCTACGACGGGATT
B11: UGUGUCA (DNA:RNA)
RNA: B1 RNA with A29U, U30C
DNA 1: CAATCTGAATTCCGGTCTCCC
DNA 2: TGGTGGCTACGACGGGATT
B12: GACAGGA (DNA:RNA)
RNA: B4 RNA with C28A, C29G, A30G, U31A
DNA 1: CAATCTGAATTCCGGTCTCCC
DNA 2: TGGTGGCTACGACGGGATT
B13: CAAGCCA (DNA:RNA)
RNA: B4 RNA with G25C, C27A, C28G, A30C, U31A
DNA 1: CAATCTGAATTCCGGTCTCCC
DNA 2: TGGTGGCTACGACGGGATT
B14: GGGCCUC (DNA:RNA)
RNA: B4 RNA with A26G, C27G, A30U, U31C
DNA 1: CAATCTGAATTCCGGTCTCCC
DNA 2: TGGTGGCTACGACGGGATT
B15: GAGAACU (DNA:RNA)
RNA: B4 RNA with C27G, C28A, C29A, A30C
DNA 1: CAATCTGAATTCCGGTCTCCC
DNA 2: TGGTGGCTACGACGGGATT
B16: ACUGGCA (DNA:RNA)
RNA: B1 RNA with U25A, G26C, A29G, U30C
DNA 1: CAATCTGAATTCCGGTCTCCC
DNA 2: TGGTGGCTACGACGGGATT
B17: GUGGCUG (DNA:RNA)
RNA: B4 RNA with A26U, C27G, C28G, A30U, U31G
DNA 1: CAATCTGAATTCCGGTCTCCC
DNA 2: TGGTGGCTACGACGGGATT
B18: ACAGCUC (DNA:RNA)
RNA: B1 RNA with U25A, G26C, U27A, A29C, A31C
DNA 1: CAATCTGAATTCCGGTCTCCC
DNA 2: TGGTGGCTACGACGGGATT
B19: UUCCUAG (DNA:RNA)
RNA: B4 RNA with G25U, A26U, C29U, U31G
DNA 1: CAATCTGAATTCCGGTCTCCC
DNA 2: TGGTGGCTACGACGGGATT
B20: AUGAACA (DNA:RNA)
RNA: B1 RNA with U25A, G26U, U27G, G28A, U30C
DNA 1: CAATCTGAATTCCGGTCTCCC
DNA 2: TGGTGGCTACGACGGGATT

The target in the assay is T1, RBFOX1 RRM. Description: EMSA; HiTS-Eq, 1 nM pool, 10 min; buffer printed only for the single-RNA assays: 10 mM Tris pH 7.5, 150 mM NaCl, 3.4 mM EDTA, 0.001% NP-40, 30 C. The conditions noted are these: tags: His6 N-terminal (pET28a); label: 5' 32P. The method, boiled down:
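These values rest on relative association constants, computed from read-count changes of each RNA species versus the control reaction and normalised to the cognate motif. Reads came from free RNA recovered by 8% native PAGE after purified RbFox RRM (wild type or mutant) at increasing concentrations was equilibrated for 10 min in 50 µL with 1 nM of a 5′-radiolabelled pool with 7 randomized nucleotides and DNA-annealed flanks.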
As to B1, the binding signal was 0.0161 KA relative to UGCAUGU.

For B2, the binding signal is 0.00739 KA relative to UGCAUGU.

Take B3: the binding signal is 0.0152 KA relative to UGCAUGU.

B4: the binding signal was 0.00238 KA relative to UGCAUGU.

As for B5, the binding signal was 0.00382 KA relative to UGCAUGU.

As for B6, the binding signal is 0.00553 KA relative to UGCAUGU.

For B7, the binding signal was 0.0139 KA relative to UGCAUGU.

On to B8, for which the binding signal was 0.0126 KA relative to UGCAUGU.

Take B9: the binding signal was 0.000586 KA relative to UGCAUGU.

As to B10, the binding signal is 0.0124 KA relative to UGCAUGU.

On to B11, for which the binding signal is 0.016 KA relative to UGCAUGU.

Take B12: the binding signal was 0.00822 KA relative to UGCAUGU.

As to B13, the binding signal is 0.00227 KA relative to UGCAUGU.

With B14, the binding signal is 0.0133 KA relative to UGCAUGU.

Consider B15, for which the binding signal was 0.0125 KA relative to UGCAUGU.

As for B16, the binding signal was 0.0143 KA relative to UGCAUGU.

Turning to B17, the binding signal was 0.0289 KA relative to UGCAUGU.

Turning to B18, the binding signal is 0.00303 KA relative to UGCAUGU.

With B19, the binding signal was 0.00517 KA relative to UGCAUGU.

As to B20, the binding signal was 0.00581 KA relative to UGCAUGU.
